From the supplement of paper PMC12632987 come the findings set out here.

Whole data set: some 4,500 sequences, median “median log2 fold change of GCK-ALFA target abundance (FLAG IP / Myc IP barcode read proportion)” near 0.078, cut for the lowest 2% near -0.6. The list shows a part of the results.

The chains are these.
B1: GBRAP_78_6722 (protein)
chain: EVEELIDKALEKLDEAAKLSLQLDEDTQAELLDLLSDAMTLLVEAEENGFDLKLLEEALKLVEEAIKLAKKLDSETAKKILKLLEEAKKYLEKAIKLLKE
B2: GBRAP_35_5570 (protein)
chain: EFDEETTEMLIATIEDLTLAVPDMPLDQAVAAAKALAETAEELVKELKDNPELLKRIAEALKKLLEAVEKHYGDSPEAKEAAARIKKVIEEALKLAKEAE
B3: GBRAP_125_3099 (protein)
chain: EEEELLENLKEIALALGFSEEDAEELARLAREGSLKQTLVALFLAEGAEEVAELVAKLTEEQAKQLVKELAKWLKENPNASKEEVIEKAKEIAEKLLAES
B4: GBRAP_160_3986 (protein)
chain: SETLEKLKEFIDEETEETIELIKGESHEERVIIIEGGFGEIIMELMSEESVSDEAEDEIAEIGDETVNTIKENPDLTYEEIVELIEEAREKMKEILEKAF
B5: GBRAP_160_4298 (protein)
chain: SPELDALKASIKEITEEAIKMIEGESRENQVAIAKVALGEILLEAFENPLVSDETEDQIGAITDAAEATLDANPDLSLEEIKALLKAATDQILALIDTLS
B6: GBRAP_184_5097 (protein)
chain: KTLERRIVAETLEEAEAQLDAAIDEAAAQGASLLLLLEAEGISEEEIVALVERLGERAAEKGVPAVTLGIDQLLSEETIDKVIEVADKHGIRLVVALPEE
B7: GBRAP_184_5321 (protein)
chain: EVKEVVIEVETEEEAKEKLEEVEKEIKESGKKYRVYIFVKNPTKELLKTIAEKIKEMKEKGIDAEFIVVTLDPVDEELADYAVKLFDEAGARIVLALEDE
B8: GBRAP_11_2713 (protein)
chain: KKELLLEFAEKAEELAKRVKKLIKEGPKEEELKKLAEEAKKLAEEAKKAGLPESIVELVKLAAELLKKAIEDPENVEEYLKEAAAALRVAAGQLLLEAEE
B9: GBRAP_139_3752 (protein)
chain: SELEKKIEEAKKLTEKIPEDPEGSIKALADLLVSVDDEEAEKIAKAAAEVAKKWPFEEFEAYFDKLIDTLLNEYNDEDRADIVEAERNRALAQIAVKEEE
B10: GBRAP_184_5278 (protein)
chain: MVIHVELEAESGEEAIAQVNKAAEEARAKGAKLKLTLLLENASEEEIIALFDKLKELKDEGVIESATVGVDSEDDEEKIDRLIKAADEAGVKLVIAIEEE
B11: GBRAP_78_6723 (protein)
chain: EVEELVEKALEKLDEAAKLSLQLPEDDRAELLDLLSDAMTLLVEAEEKGFDLKLLKEALKLVKEALKLAKKLDSETAKKIAKLLEEAIKLLEEAIKLLEK
B12: GBRAP_160_3993 (protein)
chain: SEKLEKLKKEIKELLEEALKLMTGETPENRLAIARVTSGQILLTLEESELVSDETIEEIDKILDEFVATVAANPNMTDEELKALLEETLKKIFEVIEKNI
B13: GBRAP_9_7181 (protein)
chain: EEEAKKKILKVAEEEGERAIELAPEDKKPIMKELIDKMLKELKAAIADKSKTLEEILELLEEKTDEIVDEMKKVVDEKTYKLIEAELGTAILEAEEIIEE
B14: GBRAP_74_6503 (protein)
chain: QEEVLERAKNASTAEEVIELLNYAVENIDKLDQETLDAIANRAAEFINKLMAEGKYEELKALVEAAEKLLVALPGERLNHATAALIAAVLAAEKALAAHA
B15: GBRAP_52_6249 (protein)
chain: MAARRRAAAQEVLELVNAGDLEGARALLREIAATWDEEELEAFIDEFAALARTQPAEQLEKVWLAAELAEEVLEEEGRSEVLVDLLRARVAAAIVERLQA
B16: GBRAP_90_7012 (protein)
chain: SATEELVERLKHEKEVVLEEMDLGVVSAKDDEELEKAMEILDKYNAEAATAILAVDELEPIIGKERAEKYKKKIEEAGNDKEKIKELTKEAFEEAIEIAK
B17: GBRAP_52_6092 (protein)
chain: MEEELEKMAEEIFNALKAGDLEKVTELLKKLVEEKSDEEVLKTIELTAELIAKLSPEEREKALDIFLEALDRVAEETGKEELMDDAAARIAAIAYEAELK
B18: GBRAP_52_6255 (protein)
chain: MRERARAVVEEIYALVRAGDLEAARALAERFVRESNEEELELFVDEFRALVLAADPADLAALETAVDILSEALEKAGRPEELVSLLEAEGYAAIYELEQR
B19: GBRAP_128_3257 (protein)
chain: MNEEIVEKAEKFVEKLKNSNPEEQKKIAEEFAEYLISVSDEEAEQAIDVVESRLKELTAEQLEILADVLRKHLPKMSPEKANLAAGLLVDALNEAEEKEE
B20: GBRAP_125_2981 (protein)
chain: PTEEELEALRRLARALGLDEEEAEELAELARAHSLRGALYALLRALGEEEVAELVEQLTEEEVARVLAAVDAYLKAHPDATPEEVIALLRELLEAELAKR
B21: GBRAP_125_2997 (protein)
chain: SEEKLAEALALILRALGYSEDDIEEAVEIAKKHGIKQTLIAIALAEGAEELAELLEQLTEEEAAEIALKVAEELKENPELTKEEVLELMLELAKEALAKR
B22: GBRAP_184_5286 (protein)
chain: AVRHVEIVAETAEEAIAQVRAAAAEARAAGERLDLTLLLRDADIEGIKALLALLAELRAEGVIASATLGIERELTEEEIDEVLEAADAAGVRVVLAISDE
B23: GBRAP_150_3886 (protein)
chain: DLETALTIASSALDILEATIEDGPKLLEHALKLTKALVDEVKDFSEELQKLAKEALKKIEEAIKLVKAGGKPEEIKKLLEEAAKLLEELEKLLEKKIEEE
B24: GBRAP_14_3835 (protein)
chain: MELIREILEEAARRIAEELSELAGLDLEEVLERLREAVEEALKHYKETGNLEEAFDLYEKLVVETVEELLADKPEELQEEAKAIARVEVGEAILEYEEKK
B25: GBRAP_78_6592 (protein)
chain: AIEEAVDALLEATNEAMTLLAKEPSEFAQDILGELIDETTAIYEALEEENDKEKIKKEAEELKATLEKALKHADKFSPETVAAIKAALKEAEALIKLLDE
B26: GBRAP_128_3545 (protein)
chain: SLEEARALAREAMERIKASDVETAREITEELLEKMKTWSLEEVEAAVEELLERLPELSAEKLEAVADAIEEQRGKFSPEVQELLADLQVEALNLAEEQEE
B27: GBRAP_52_6004 (protein)
chain: MEERLRRLAREILERTLAGDWEGARALLREAAETLSLEELRLLAEKIAELIRERGPEDPERYVRLADLVAEVLEEAGVPEEEVLLITGIIEAGIAQAEAA
B28: GBRAP_184_5020 (protein)
chain: MVLEEVIRVENVEEARAKMAEVAERAAAQKADLILTVEIANPTREIVEAIMDELGRIMAEGKVSRLTVGIDAELSEELVDLAVEKADEAGVNLVVALSEE
B29: GBRAP_160_4082 (protein)
chain: SEAYEKLIKEIEEIFEEALEMMEDVTREEAVAIALVALGEVALLIEEEEELSEEDKEKLLKIVDEAEKEIRAAKDATVEEIKALLREHKERLVEEVKKLD

Sequence of GABARAP, O95166 (O95166 whole entry, the tested form may be a part): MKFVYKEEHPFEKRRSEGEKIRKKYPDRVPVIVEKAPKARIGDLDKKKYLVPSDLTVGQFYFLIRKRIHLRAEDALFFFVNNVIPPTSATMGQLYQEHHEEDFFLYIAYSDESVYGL

This test has as its target GABARAP, O95166. The test is described as follows: median log2 fold change of GCK-ALFA target abundance (FLAG IP / Myc IP barcode read proportion) (log2 ratio); each designed protein is fused to an ALFA-tag nanobody in HEK293 cells to bring the named protein to FLAG-tagged glucokinase (GCK); Myc marks an untargeted standard; higher = target protein stabilised (more abundant). Conditions: target protein: 3xFLAG-MCP-GCK-ALFA reporter; HEK293 landing pad (RPLP). In a few lines: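 Binders fused to an ALFA nanobody were recombined as a library into HEK293 landing-pad cells, which were induced with 2 μg mL^−1 doxycycline and then transfected to express a FLAG-tagged target and a Myc-tagged standard. After 48 h, circular RNA barcodes recovered by anti-FLAG and anti-Myc immunoprecipitation of lysates were reverse transcribed, amplified and sequenced. Each binder's target abundance is the median log2 ratio of FLAG to Myc barcode read proportions, from barcodes present at ≥10^−7 in both replicates, binders carrying ≥3 barcodes per replicate, a 10^−6 pseudocount and pooled replicates.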
Consider B1, for which the “median log2 fold change” value stood at 0.148. To B2 belongs 0.228; to B3, -0.11. On to B4, for which the “median log2 fold change” value is -0.0963.

For the molecule B5, the “median log2 fold change” value is -0.376. For the molecule B6, the “median log2 fold change” value is -0.0834. As to B7, the “median log2 fold change” value was -0.167. On to B8, for which the “median log2 fold change” value was found to be 0.0717. As to B9, the “median log2 fold change” value is 0.0429. B10: the “median log2 fold change” value was determined as 0.158.

For the molecule B11, the “median log2 fold change” value turned out to be 0.237.

With B12, the “median log2 fold change” value is -0.126. For B13, the “median log2 fold change” value came out at 0.159. In the case of B14 it was 0.165; in that of B15, -0.323. B16: the “median log2 fold change” value was 0.148. Regarding B17, the “median log2 fold change” value amounted to 0.106. Take B18: the “median log2 fold change” value is -0.0883.

With B19, the “median log2 fold change” value came out at 0.216. For the molecule B20, the “median log2 fold change” value was -0.142.

On to B21, for which the “median log2 fold change” value is -0.0754.

Regarding B22, the “median log2 fold change” value was found to be 0.0492. Regarding B23, the “median log2 fold change” value came out at 0.00752. Consider B24, for which the “median log2 fold change” value is -0.325. Consider B25, for which the “median log2 fold change” value came to 0.0587. In the case of B26 it was 0.103; in that of B27, -0.375. With B28, the “median log2 fold change” value was determined as 0.175. Regarding B29, the “median log2 fold change” value is -0.223.
